According to the RNAGym collection of RNA variant scans (doi:10.1101/gad.245936.114):
Variants at the floor of the assay are shown more often than the library holds them.

B1: tRNA (parent)
chain: CUCUCGGUAGCCAAGUUGGUUUAAGGCGCAAGACUUUAAUUUAUCACUACGAAAUCUUGAGAUCGGGCGUUCGACUCGCCCCCGGGAGAUUUUUUCCUCGAGCAA

Variants of: B1
Assay: nonsense suppression (GFP-seq) (ratio to wild type); higher = more function; SUP4oc tRNA, yeast GFP reporter sort-seq
Summary of the method: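 Nonsense suppression (GFPSEQ) is the median GFP/RFP ratio of each sorting bin, weighted by the variant's estimated share of cells in that bin and expressed relative to the unmutated parent tRNA. Yeast strains carried genome-integrated variants of an ochre-suppressor tRNA from a library with ~3% random mutations, plus a galactose-driven GFP ochre reporter and RFP, and were grown in raffinose/galactose medium containing 80 mg/L adenine. Cells were sorted into GFP/RFP bins, each bin was Illumina-sequenced (phred ≥30), and variants were kept only with ≥100 reads and ≥30 cells.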

Variant | nonsense suppression
CUCUCGGUAGCCAAGUUGGUUUAAGGCGCAAGACUUUAAUUUAUCACUACGAAAUCUUGAGAUCGGGCGUUCGACUCGCCCCAGGGACAUUUUUUCCUCGAGCAA | ≤ 0.026
CUCUCGGUAGCCAAGUUGGUUUAAGGCGCAAGACUUUAAUUUAUCACUACGAAAUCUUGAGAUCGGGCGUUCGACUCGCCCCUAGGAGAUUUUUUCCUCGAGCAA | ≤ 0.026
CUCUCGGUAGCCAAGUUGGUUUAAGGCGCAAGACUUUAAUUUAUCACUACGAAAUCUUGAGAUCGGGCGUUCGACUCGCCCCUGUGACAUUUUUUCCUCGAGCAA | ≤ 0.026
CUCUCGGUAGCCAAGUUGGUUUAAGGCGCAAGACUUUAAUUUAUCACUACGAAAUCUUGAGAUCGGGCGUUCGACUCGCCCCUGGGAUCUUUUUUCCUCGAGCAA | ≤ 0.026
CUCUCGGUAGCCAAGUUGGUUUAAGGCGCAAGACUUUAAUUUAUCACUACGAAAUCUUGAGAUCGGGCGUUCGACUCGCCCCCAGGAGCUUUUUUCCUCGAGCAA | ≤ 0.026
CUCUCGGUAGCCAAGUUGGUUUAAGGCGCAAGACUUUAAUUUAUCACUACGAAAUCUUGAGAUCGGGCGUUCGACUCGCCCCCAGGAGUUUUUUUCCUCGAGCAA | ≤ 0.026
CUCUCGGUAGCCAAGUUGGUUUAAGGCGCAAGACUUUAAUUUAUCACUACGAAAUCUUGAGAUCGGGCGUUCGACUCGCCCCCCCGAGAUUUUUUCCUCGAGCAA | 0.0289
CUCUCGGUAGCCAAGUUGGUUUAAGGCGCAAGACUUUAAUUUAUCACUACGAAAUCUUGAGAUCGGGCGUUCGACUCGCCCCCCUGAGAUUUUUUCCUCGAGCAA | ≤ 0.026
CUCUCGGUAGCCAAGUUGGUUUAAGGCGCAAGACUUUAAUUUAUCACUACGAAAUCUUGAGAUCGGGCGUUCGACUCGCCCCCUGAAGAUUUUUUCCUCGAGCAA | ≤ 0.026
CUCUCGGUAGCCAAGUUGGUUUAAGGCGCAAGACUUUAAUUUAUCACUACGAAAUCUUGAGAUCGGGCGUUCGACUCGCCCCCUGGAAAUUUUUUCCUCGAGCAA | ≤ 0.026
CUCUCGGUAGCCAAGUUGGUUUAAGGCGCAAGACUUUAAUUUAUCACUACGAAAUCUUGAGAUCGGGCGUUCGACUCGCCCCCUGGAUAUUUUUUCCUCGAGCAA | ≤ 0.026
CUCUCGGUAGCCAAGUUGGUUUAAGGCGCAAGACUUUAAUUUAUCACUACGAAAUCUUGAGAUCGGGCGUUCGACUCGCCCCCGAGGGAUUUUUUCCUCGAGCAA | 1.18
CUCUCGGUAGCCAAGUUGGUUUAAGGCGCAAGACUUUAAUUUAUCACUACGAAAUCUUGAGAUCGGGCGUUCGACUCGCCCCCGCGCGAUUUUUUCCUCGAGCAA | ≤ 0.026
CUCUCGGUAGCCAAGUUGGUUUAAGGCGCAAGACUUUAAUUUAUCACUACGAAAUCUUGAGAUCGGGCGUUCGACUCGCCCCCGCCAGAUUUUUUCCUCGAGCAA | ≤ 0.026
CUCUCGGUAGCCAAGUUGGUUUAAGGCGCAAGACUUUAAUUUAUCACUACGAAAUCUUGAGAUCGGGCGUUCGACUCGCCCCCGUGAUAUUUUUUCCUCGAGCAA | ≤ 0.026
CUCUCGGUAGCCAAGUUGGUUUAAGGCGCAAGACUUUAAUUUAUCACUACGAAAUCUUGAGAUCGGGCGUUCGACUCGCCCCCGGAAAAUUUUUUCCUCGAGCAA | ≤ 0.026
CUCUCGGUAGCCAAGUUGGUUUAAGGCGCAAGACUUUAAUUUAUCACUACGAAAUCUUGAGAUCGGGCGUUCGACUCGCCCCCGGAACAUUUUUUCCUCGAGCAA | ≤ 0.026
CUCUCGGUAGCCAAGUUGGUUUAAGGCGCAAGACUUUAAUUUAUCACUACGAAAUCUUGAGAUCGGGCGUUCGACUCGCCCCCGGUUGAUUUUUUCCUCGAGCAA | ≤ 0.026
CUCUCGGUAGCCAAGUUGGUUUAAGGCGCAAGACUUUAAUUUAUCACUACGAAAUCUUGAGAUCGGGCGUUCGACUCGCCCCCGGUAGGUUUUUUCCUCGAGCAA | ≤ 0.026
CUCUCGGUAGCCAAGUUGGUUUAAGGCGCAAGACUUUAAUUUAUCACUACGAAAUCUUGAGAUCGGGCGUUCGACUCGCCCCCGGGCGCUUUUUUCCUCGAGCAA | ≤ 0.026
CUCUCGGUAGCCAAGUUGGUUUAAGGCGCAAGACUUUAAUUUAUCACUACGAAAUCUUGAGAUCGGGCGUUCGACUCGCCCCCGGGCAAUUUUUUCCUCGAGCAA | ≤ 0.026
CUCUCGGUAGCCAAGUUGGUUUAAGGCGCAAGACUUUAAUUUAUCACUACGAAAUCUUGAGAUCGGGCGUUCGACUCGCCCCCGGGGAAUUUUUUCCUCGAGCAA | ≤ 0.026
CUCUCGGUAGCCAAGUUGGUUUAAGGCGCAAGACUUUAAUUUAUCACUACGAAAUCUUGAGAUCGGGCGUUCGACUCGCCCCCGGGGCAUUUUUUCCUCGAGCAA | ≤ 0.026
CUCUCGGUAGCCAAGUUGGUUUAAGGCGCAAGACUUUAAUUUAUCACUACGAAAUCUUGAGAUCGGGCGUUCGACUCGCCCCCGGGACCUUUUUUCCUCGAGCAA | ≤ 0.026
CUCUCGGUAGCCAAGUUGGUUUAAGGCGCAAGACUUUAAUUUAUCACUACGAAAUCUUGAGAUCGGGCGUUCGACUCGCCCCCGGGAUCUUUUUUCCUCGAGCAA | ≤ 0.026
CUCUCGGUAGCCAAGUUGGUUUAAGGCGCAAGACUUUAAUUUAUCACUACGAAAUCUUGAGAUCGGGCGUUCGACUCGCCCCCGGGAUGUUUUUUCCUCGAGCAA | ≤ 0.026
